Laboratory results reported in article PMC7795627.
No constants are given. Whether binding was seen depends on the method and setting. In cells and extracts the contact can be indirect. Some entries that bind do so weakly or less than the wild type. Each block holds one molecule with its values, some of them ahead of it.

Key:
[1] = biological target: E196K CST variant (human) (UniProt P78382); test: split reporter; NanoBiT luminescence in living CST-deficient HEK293T cells co-transfected with N-terminal SmBiT and LgBiT fusions of the same CST variant; control: LgBiT-CST with SmBiT-HaloTag; only a signal at least 10-fold over the control counted as an interaction
[2] = biological target: Q101H CST variant (human) (UniProt P78382); test: as above
[3] = biological target: T156R CST variant (human) (UniProt P78382); test: as above
[4] = biological target: double T156R/E196K CST mutant (human) (UniProt P78382); test: as above
[5] = biological target: T1, wild-type human CMP-sialic acid transporter (human), P78382; test: split reporter; bioluminescent imaging (LV200) of living wild-type HEK293T cells transfected with LgBiT and SmBiT fusions of wild-type CST, 250 ng of each plasmid; details: remark: other sources report otherwise
T1 chain: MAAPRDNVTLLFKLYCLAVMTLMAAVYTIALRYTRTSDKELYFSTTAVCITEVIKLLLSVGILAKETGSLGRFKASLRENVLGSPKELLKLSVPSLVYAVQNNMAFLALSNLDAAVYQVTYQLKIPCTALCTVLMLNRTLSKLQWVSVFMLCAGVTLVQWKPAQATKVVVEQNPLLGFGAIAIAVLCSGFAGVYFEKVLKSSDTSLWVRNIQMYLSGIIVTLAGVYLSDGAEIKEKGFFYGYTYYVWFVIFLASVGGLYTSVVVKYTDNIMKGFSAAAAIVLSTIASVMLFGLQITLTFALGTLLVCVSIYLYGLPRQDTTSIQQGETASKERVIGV

[6] = biological target: T1, wild-type human CMP-sialic acid …; test: split reporter; NanoBiT luminescence in living CST-deficient HEK293T cells co-transfected with N-terminal SmBiT and LgBiT fusions of the same CST variant; control: LgBiT-CST with SmBiT-HaloTag; only a signal at least 10-fold over the control counted as an interaction; details: remark: other sources report otherwise

Molecule: double T156R/E196K CST mutant (from UniProt P78382 1-337)
binding [4]: binds

B1: wild-type human CMP-sialic acid transporter, P78382 1-337 (protein)
chain: MAAPRDNVTLLFKLYCLAVMTLMAAVYTIALRYTRTSDKELYFSTTAVCITEVIKLLLSVGILAKETGSLGRFKASLRENVLGSPKELLKLSVPSLVYAVQNNMAFLALSNLDAAVYQVTYQLKIPCTALCTVLMLNRTLSKLQWVSVFMLCAGVTLVQWKPAQATKVVVEQNPLLGFGAIAIAVLCSGFAGVYFEKVLKSSDTSLWVRNIQMYLSGIIVTLAGVYLSDGAEIKEKGFFYGYTYYVWFVIFLASVGGLYTSVVVKYTDNIMKGFSAAAAIVLSTIASVMLFGLQITLTFALGTLLVCVSIYLYGLPRQDTTSIQQGETASKERVIGV
binding [5]: binds
binding [6]: binds

More lines, now with the values ahead:

binding [1]: no binding
Molecule: E196K CST variant (from UniProt P78382 1-337)

binding [2]: no binding
Molecule: Q101H CST variant (from UniProt P78382 1-337)

binding [3]: binds
Molecule: T156R CST variant (from UniProt P78382 1-337)
